# Reference: PubChem BioAssay AID504333 (National Center for Advancing Translational Sciences (NCATS), 2011)
# About 16,000 (4.4%) of roughly 360,000 compounds were called active. The inconclusive results got no clear call from the source; some entries with a clear call stand among them for comparison. The call rests on the fitted dose curve; in most records, active means well fitted inhibition curve with a large enough effect; inconclusive means small, poorly fitted or top-dose-only effect; inactive means no such curve, though single readings can be large or run the other way. Where the call is inconclusive, the potency comes from a doubtful curve fit.
# Biological target: Bromodomain adjacent to zinc finger domain protein 2B (Homo sapiens) (UniProt Q9UIF8)
# UniProt Q9UIF8, sequence (Q9UIF8 whole entry, looked up, the tested form may be a part): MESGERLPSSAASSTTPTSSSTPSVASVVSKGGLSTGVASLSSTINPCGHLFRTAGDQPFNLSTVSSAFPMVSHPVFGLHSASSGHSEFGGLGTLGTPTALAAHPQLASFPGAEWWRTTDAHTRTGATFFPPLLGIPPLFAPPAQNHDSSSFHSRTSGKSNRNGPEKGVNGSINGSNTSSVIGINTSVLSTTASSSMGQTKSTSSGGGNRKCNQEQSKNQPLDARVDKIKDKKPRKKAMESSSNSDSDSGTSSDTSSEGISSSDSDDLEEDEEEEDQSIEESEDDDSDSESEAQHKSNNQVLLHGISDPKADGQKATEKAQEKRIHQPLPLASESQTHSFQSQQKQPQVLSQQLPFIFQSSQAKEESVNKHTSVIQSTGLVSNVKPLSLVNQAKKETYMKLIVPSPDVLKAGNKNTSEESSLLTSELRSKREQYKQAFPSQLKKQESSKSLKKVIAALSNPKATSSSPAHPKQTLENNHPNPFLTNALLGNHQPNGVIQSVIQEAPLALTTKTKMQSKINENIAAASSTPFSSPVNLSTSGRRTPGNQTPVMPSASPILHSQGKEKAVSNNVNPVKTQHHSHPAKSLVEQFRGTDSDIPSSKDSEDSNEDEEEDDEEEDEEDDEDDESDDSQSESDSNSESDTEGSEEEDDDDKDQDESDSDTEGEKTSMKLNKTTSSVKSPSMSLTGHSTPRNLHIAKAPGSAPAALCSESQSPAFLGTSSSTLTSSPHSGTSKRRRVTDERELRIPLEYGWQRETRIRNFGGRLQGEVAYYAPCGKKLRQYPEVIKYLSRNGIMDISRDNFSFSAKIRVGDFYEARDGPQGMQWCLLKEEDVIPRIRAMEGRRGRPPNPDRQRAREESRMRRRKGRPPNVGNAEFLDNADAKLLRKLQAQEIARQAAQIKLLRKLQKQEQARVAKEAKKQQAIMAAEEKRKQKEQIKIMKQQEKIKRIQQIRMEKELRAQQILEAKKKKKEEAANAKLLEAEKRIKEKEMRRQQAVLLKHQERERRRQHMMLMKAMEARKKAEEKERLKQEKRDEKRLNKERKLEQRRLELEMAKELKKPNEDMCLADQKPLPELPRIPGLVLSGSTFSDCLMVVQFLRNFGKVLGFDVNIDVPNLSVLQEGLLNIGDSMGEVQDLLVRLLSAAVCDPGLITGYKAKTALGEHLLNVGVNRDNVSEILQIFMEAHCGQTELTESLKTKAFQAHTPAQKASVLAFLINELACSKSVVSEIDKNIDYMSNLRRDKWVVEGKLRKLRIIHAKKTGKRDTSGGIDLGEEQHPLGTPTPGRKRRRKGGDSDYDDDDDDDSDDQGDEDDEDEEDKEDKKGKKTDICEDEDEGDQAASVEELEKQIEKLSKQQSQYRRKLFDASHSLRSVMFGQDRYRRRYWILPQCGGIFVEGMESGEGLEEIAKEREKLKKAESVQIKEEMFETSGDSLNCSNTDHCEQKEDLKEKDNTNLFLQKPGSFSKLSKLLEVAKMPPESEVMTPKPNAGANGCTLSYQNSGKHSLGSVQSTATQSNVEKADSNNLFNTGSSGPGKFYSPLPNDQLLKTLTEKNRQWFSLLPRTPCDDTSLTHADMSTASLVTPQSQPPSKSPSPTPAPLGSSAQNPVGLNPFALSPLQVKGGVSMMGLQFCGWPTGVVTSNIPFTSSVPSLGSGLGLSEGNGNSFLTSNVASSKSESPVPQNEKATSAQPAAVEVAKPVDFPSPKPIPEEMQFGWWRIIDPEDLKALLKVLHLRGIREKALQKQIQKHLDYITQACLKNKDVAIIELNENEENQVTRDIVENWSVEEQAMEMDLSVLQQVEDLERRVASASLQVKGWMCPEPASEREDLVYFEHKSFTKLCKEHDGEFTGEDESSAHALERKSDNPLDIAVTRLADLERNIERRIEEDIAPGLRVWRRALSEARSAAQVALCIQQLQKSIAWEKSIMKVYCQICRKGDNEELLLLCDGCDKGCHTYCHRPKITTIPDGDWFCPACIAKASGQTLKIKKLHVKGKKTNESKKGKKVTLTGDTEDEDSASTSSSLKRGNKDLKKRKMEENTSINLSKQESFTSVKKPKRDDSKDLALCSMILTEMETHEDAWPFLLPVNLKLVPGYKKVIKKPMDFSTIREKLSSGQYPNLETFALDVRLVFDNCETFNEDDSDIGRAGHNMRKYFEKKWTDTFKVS
# Assay: qHTS Assay for Inhibitors of BAZ2B; further: nearly all actives have a fitted effect of over 60% in size
# Details: AlphaScreen BAZ2B-H3K14Ac peptide displacement; activity change, negative = inhibition: at 114 µM (top of the series)
# In short: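 AlphaScreen luminescence quantifies BAZ2B engagement of H3K14Ac peptide; the protein and biotinylated peptide are both at 50 nM final, buffer PBS pH 7.4 with 0.01% Tween-20, all steps at room temperature.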
# On the % scale 0 is the no-effect control and ±100 the full control effect; potency means the concentration at half of the fitted maximal effect; tags describe the fitted curve by direction and shape.
SMILES,Potency,"activity change, negative = inhibition"
FC(F)(F)c1ccc(CNCCc2ccc3c(c2)OCO3)cc1,active: 79.4 µM,–
c1cc2c(cc1CCNC1CCCCCC1)OCO2,active: 17.8 µM,–
CCCCn1c(O)c(C(CC)=NCCN2CCOCC2)c(=O)[nH]c1=O,"inconclusive: 89.1 µM [inhibitor, single point]",–
O=c1c2ccccc2nc(/C=C\c2ccccc2[N+](=O)[O-])n1-c1ccccc1O,"inconclusive: 50.1 µM [inhibitor, partial curve]",–
Clc1ccc2c(c1)C(c1ccccc1Cl)=NCc1nnc(N3CCN(CCSc4ccccc4)CC3)n1-2,"inconclusive: 89.1 µM [inhibitor, single point]",–
Cc1ccccc1-n1c(O)c(/C=C2/C(c3ccccc3)=Nc3ccccc32)c(=O)[nH]c1=O,"inconclusive: 70.8 µM [inhibitor, single point]",–
COc1ccc(CC(=O)N2CCN(C)CC2)cc1OC,"inconclusive: 89.1 µM [inhibitor, single point]",–
CC(=O)CC(C)(C)n1c[n+](C)nn1,"inconclusive: 89.1 µM [inhibitor, single point]",–
Cc1ccc(Sc2ccc(C=C3C(=O)N(C)C(=O)N(C)C3=O)o2)cc1,"inconclusive: 79.4 µM [inhibitor, single point]",–
C=C1[C@@H](C)[C@H]2[C@H](Cc3ccccc3)NC(=O)[C@]23OC(=O)/C=C/[C@H](O)CCC[C@@H](C)C/C=C/[C@H]3[C@@H]1O,"inconclusive: 100 µM [inhibitor, partial curve]",–
O=P(C(Cl)Cl)(N1CCCCC1)N1CCCCC1,–,inactive: 5.27%
Cc1ccc2cc(CNCCc3ccccc3C)c(=O)[nH]c2c1,"inconclusive: 20 µM [inhibitor, full curve, poor fit]",–
Cc1cc(N2CCOCC2)ccc1/C=C1\C(=O)NC(=O)N(c2ccccc2)C1=O,"inconclusive: 89.1 µM [inhibitor, single point]",–
CCCCn1c(O)c(C(C)=NCCc2c[nH]c3ccccc23)c(=O)[nH]c1=O,"inconclusive: 79.4 µM [inhibitor, partial curve]",–
Cc1cc2ccccn2c1C(C[N+](=O)[O-])c1c(F)cccc1Cl (stereo not drawn),"inconclusive: 56.2 µM [inhibitor, partial curve]",–
CCC(=NCc1ccco1)c1c(O)n(Cc2ccccc2)c(=O)[nH]c1=O,active: 50.1 µM,–
c1ccc(CN2CCNCC2)nc1,active: 70.8 µM,–
Cc1cc(C)cc(N2C(=O)NC(=O)/C(=C\C=C\c3ccco3)C2=O)c1,"inconclusive: 28.2 µM [inhibitor, partial curve]",–
NC(Cc1ccccc1)c1nc2ccccc2[nH]1 (stereo not drawn),"inconclusive: 89.1 µM [inhibitor, single point]",–
CN1C(=O)/C(=C\c2ccc(Br)s2)C(=O)NC1=S,"inconclusive: 89.1 µM [inhibitor, single point]",–
CCOc1ccc(-n2c(O)c(C=Nc3ccc(N(CC)CC)cc3)c(=O)[nH]c2=O)cc1,–,inactive: -34.6%
CC(=O)C1(c2ccccc2)CCN(C(=O)C2CCC(=O)N(CCc3cccc(F)c3)C2)CC1 (stereo not drawn),–,inactive: -2.43%

SMILES,Potency,"activity change, negative = inhibition"
COc1ccccc1N1C(=O)NC(=O)/C(=C/c2ccc3c4c(cccc24)CC3)C1=O,"inconclusive: 79.4 µM [inhibitor, single point]",–
O=C1C(c2ccccc2)=C(N2CC2)c2ccccc21,active: 35.5 µM,–
CN(C(=O)COC(=O)c1ccc([N+](=O)[O-])cc1Cl)C1CCCCC1,"inconclusive: 50.1 µM [inhibitor, partial curve]",–
O=c1[nH]c(=S)n(C2CC2)c(O)c1/C=N/Nc1cccc2ccccc12,"inconclusive: 39.8 µM [inhibitor, partial curve]",–
CCOc1cc2c(cc1OCC)-n1cccc1C(c1ccccc1O)NC2 (stereo not drawn),active: 50.1 µM,–
Cc1cc(C)cc(NC(=S)NC2CC3CCCC(C2)N3Cc2cccs2)c1 (stereo not drawn),"inconclusive: 44.7 µM [inhibitor, partial curve]",–
O=C1NC(=O)N(Cc2ccccc2)C(=O)/C1=C/C=C/c1ccco1,active: 35.5 µM,–
O=c1[nH]c(=S)n(-c2ccccc2)c(O)c1/C=N/N1CCOCC1,"inconclusive: 89.1 µM [inhibitor, single point]",–
C=CCN(CC#CCOc1ccccc1OC)CC=C,active: 50.1 µM,–
O=C(CN1C(=O)CN=C(c2ccccc2)c2ccccc21)NCc1ccco1,"inconclusive: 44.7 µM [inhibitor, partial curve]",–
CN(C[C@H](Cc1ccccc1)N(C[C@H](Cc1ccccc1)N(CCC(C)(C)C)N=O)N=O)N=O,"inconclusive: 79.4 µM [inhibitor, single point]",–
COc1ccc(-n2c(O)c(/C=C3\C=Nc4ccccc43)c(=O)[nH]c2=O)cc1,"inconclusive: 89.1 µM [inhibitor, single point]",–
O=C(Nc1ccc(F)c(Cl)c1)N(Cc1ccc2c(c1)OCO2)C1CCN(Cc2ccccc2)CC1,"inconclusive: 35.5 µM [inhibitor, full curve]",–
CC(=O)NC(Cc1ccc(N(CCCl)CCCl)cc1)C(=O)NCC(=O)NCC(=O)O (stereo not drawn),"inconclusive: 89.1 µM [inhibitor, single point]",–
O=C1NC(=S)NC(=O)C1=Cc1ccc(OCC(=O)N2CCCC2)cc1,"inconclusive: 56.2 µM [inhibitor, partial curve]",–
Cc1ccc2c(c1Cl)NC(C(=O)O)C1CC(Sc3ccccc3[N+](=O)[O-])C(Cl)C21 (stereo not drawn),active: 14.1 µM,–
O=S(=O)(Nc1ccc2[nH]ncc2c1)c1ccccc1Cl,"inconclusive: 79.4 µM [inhibitor, single point]",–
CC(=O)Nc1nnc(SCC(=O)NCCOc2ccccc2)s1,"inconclusive: 89.1 µM [inhibitor, single point]",–
COCCCNC(=O)c1c(N)n(Cc2ccco2)c2nc3ccccc3nc12,–,inactive: -6.49%
O=C1NC(=O)C(Sc2ccccc2[N+](=O)[O-])C(=O)N1,active: 50.1 µM,–
O=C(Nc1ccc2c(c1)OCO2)c1cn(Cc2ccc(F)cc2)nn1,"inconclusive: 79.4 µM [inhibitor, single point]",–
